# Assay results: PubChem BioAssay AID901 (National Center for Advancing Translational Sciences (NCATS), 2007)
# Screen size: about 120,000 compounds; fewer than 10 were called active. Inconclusive results, whose numbers are uncertain, are shown with a selection of clear calls. Calls come from the whole dose curve; as a rule, active = well fitted curve in the direction sought with a large enough effect in the signal ratio (not every such curve was filed as active); inconclusive = small, poorly fitted or top-dose-only effect, or a change in a side signal; inactive = no such curve, though single readings can be large or run the other way; the % refers to the signal ratio. No potency is given beside an inconclusive call; the fits are too rough.
# Biological target: Inositol monophosphatase 1 (Rattus norvegicus) (UniProt P97697)
# UniProt P97697, sequence (P97697 whole entry, looked up): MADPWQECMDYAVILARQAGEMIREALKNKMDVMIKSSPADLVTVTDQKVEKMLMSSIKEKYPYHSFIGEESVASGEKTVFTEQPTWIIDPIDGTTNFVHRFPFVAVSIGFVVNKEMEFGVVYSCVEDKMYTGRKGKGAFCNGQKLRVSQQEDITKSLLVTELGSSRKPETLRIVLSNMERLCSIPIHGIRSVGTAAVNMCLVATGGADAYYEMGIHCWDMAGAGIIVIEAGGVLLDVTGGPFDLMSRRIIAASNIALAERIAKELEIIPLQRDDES
# Assay: qHTS Assay for Identifying the Cell-Membrane Permeable IMPase Inhibitors;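 note: cells stimulated with carbachol in lithium chloride buffer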;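 for inhibition (IP1 accumulation): plate controls were DMSO basal wells for no effect and reference inhibitor wells for full effect; higher means more IMPase inhibition seen as more IP1 and lower FRET ratio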
# Conditions: CHO-M1 cells, HTRF TR-FRET ratio; Potency: IP1 accumulation unless noted; inhibition (IP1 accumulation): at 46.1 µM (top of the series) unless noted
Compound,inhibition (IP1 accumulation),Potency
COc1cccc(C2CC(c3ccccc3OC)n3ncnc3N2)c1 (centres undefined),inactive: 5.61%,–
CC(=O)N1N=C(c2ccc(C(C)(C)C)cc2)OC1(C)C,inconclusive: -22.2% [phenotype inactive],–
Cc1ccc(/C=C2\CCC3=C2OC(N)=C(C#N)C3c2ccc(C)cc2)cc1 (centres undefined),inactive: -7.97%,–
CN(C)c1ccc(C=NCCC2(O)CCOC(C)(C)C2)cc1 (centres undefined),–,"inconclusive [rising, single point]"
COc1ccc(S(=O)(=O)N(CC(=O)NCCc2ccccc2)c2ccc(Cl)cc2)cc1,–,"inconclusive [inhibitor, single point]"
CC(=O)c1cccc(NC(=O)c2cc3nc(C)cc(C)n3n2)c1,–,"inconclusive [inhibitor, single point]"
C#CC(=O)N(c1cccc(OC)c1)C(C(=O)NC1CCCC1)c1cccs1 (centres undefined),inactive: 23.2%,–
CNC[C@H](O)c1ccc(OC(=O)C(C)(C)C)c(OC(=O)C(C)(C)C)c1,inactive: 0.131% [at 20.6 µM],–
O=C(CN1CCCc2ccccc21)NCc1ccccc1Cl,inactive: 4.16%,–
COc1ccc(NC(=O)CSc2nc3ccccc3nc2N2CCC(C)CC2)cc1,inactive: 15.9%,–
Cc1cc(NC(=O)CCC(=O)N(CC(=O)NCC2CCCO2)c2ccccc2C)no1 (centres undefined),inconclusive: 6.13% [phenotype inactive],–
CC(=O)Nc1cc2ccc(OC(C)=O)cc2oc1=O,–,"inconclusive [inhibitor, single point]"
CCOCCCNS(=O)(=O)c1ccc2c(c1)OCCO2,–,"inconclusive [inhibitor, single point]"
COc1ccc(/C(O)=C2/C(=O)C(=O)N(Cc3cccnc3)C2c2ccco2)cc1OC (centres undefined),–,"inconclusive [inhibitor, single point]"
COc1ccc(-n2c(C)nc3cc(C(=O)NCCN4CCOCC4)ccc32)cc1,inactive: -6.17%,–
CC(Sc1cnc2ccccc2n1)C(=O)O (centres undefined),–,"inconclusive [falling, partial curve]"
CCC1(C)Cc2nc3sc(C(=O)O)c(N)c3cc2CO1 (centres undefined),inactive: -6.25%,–
Cc1c(C)c2cc(Cl)c(O)c(CN3CCCC(C)C3)c2oc1=O (centres undefined),–,"inconclusive [inhibitor, single point]"
COc1ccc(C(=O)Nc2ccc(Cl)cc2C(=O)NCc2ccco2)cc1,–,"inconclusive [inhibitor, single point]"
OC1(c2cn(Cc3ccccc3)nn2)CCCCC1,inconclusive: 9.39% [phenotype inactive],–
CC1=C(C(=O)OC2CCCCCC2)C(c2cccc(F)c2F)CC(=O)N1 (centres undefined),inactive: 4.74%,–
CCOC(=O)c1c(C)[nH]c(C(=O)OCC(=O)N2CCc3ccccc32)c1C,inconclusive: -1.49%,–
Brc1cc(Br)c2nc(-c3cccs3)ccc2c1,–,"inconclusive [falling, partial curve]"
CCc1cc(=O)oc2cc(OC(C)=O)cc(OC(C)=O)c12,–,"inconclusive [inhibitor, partial curve]"
CC(=O)N1CCc2cc(Br)cc(S(=O)(=O)NCCCN3CCC(C)CC3)c21,–,"inconclusive [falling, single point]"

Compound,inhibition (IP1 accumulation),Potency
COc1ccccc1NC(=O)c1sc2nc(-c3ccco3)ccc2c1N,–,"inconclusive [inhibitor, partial curve, poor fit]"
Cc1ccc(N2C(=O)CC(N(CCc3ccccc3)C(=S)Nc3ccc(N(C)C)cc3)C2=O)cc1 (centres undefined),inactive: 3.26%,–
COCCCN1CN(S(=O)(=O)c2ccc(Cl)cc2)c2nc3ccccc3nc21,inconclusive: 11.7% [phenotype inactive],–
CCCn1c(=O)[nH]c2nc(-c3ccc(S(=O)(=O)O)cc3)[nH]c2c1=O,–,"inconclusive [inhibitor, partial curve, poor fit]"
COc1ccc(-n2c(=S)[nH]c3cc(C(=O)Nc4ccccc4OC)ccc3c2=O)cc1,–,"inconclusive [inhibitor, single point]"
Cc1cc(=O)oc2c(CN3CCCCC3)c(O)c(Cl)cc12,–,"inconclusive [falling, partial curve]"
COc1ccc2nc3sc(C(=O)NCc4cccs4)c(N)c3cc2c1,–,"inconclusive [inhibitor, partial curve, poor fit]"
CCOC(=O)CSC1=C(C#N)C(c2ccc(C)s2)CC(=O)N1 (centres undefined),inactive: 4.89%,–
COC(=O)c1cccc(NC(=S)NCCC2=CCCCC2)c1,inactive: 7.04%,–
CCc1nnc2c3ccccc3nc(Nc3ccccc3OC)n12,–,"inconclusive [falling, single point]"
COc1cccc(NC(=O)CCSc2ccc3ccccc3n2)c1,–,"inconclusive [falling, partial curve]"
O=C(Nc1ccccc1N1CCCCC1)c1cccs1,inactive: 5.46%,–
COCc1cc(C)nc(Nc2ccc(C)c(C)c2)c1C#N,–,"inconclusive [inhibitor, partial curve]"
CCCCC(c1nnnn1CC1CCCO1)N1CCN(Cc2ccccc2)CC1 (centres undefined),inactive: 1.55%,–
CCCc1cc(=O)oc2c(C)c(O)c(CN3CCCCC3)cc12,–,"inconclusive [inhibitor, single point]"
N#C/C(=C\C=C\c1ccccc1[N+](=O)[O-])c1nc(-c2ccc3c(c2)OCO3)cs1,inactive: 12.1%,–
COc1ccc2nc(SCC(=O)Nc3ccccc3C)[nH]c2c1,inactive: -0.636%,–
Cc1ccc(Nc2nnc(SCC(=O)Nc3ccccc3[N+](=O)[O-])s2)cc1,inactive: 0.862%,–
CCN(CC)CCN1C(=O)C(O)=C(C(=O)c2cc3ccccc3o2)C1c1cccnc1 (centres undefined),–,"inconclusive [falling, partial curve]"
CCOC(=O)c1sc(NC(=O)c2nc3nc(C)cc(C(F)F)n3n2)c(C(=O)OC)c1C,–,"inconclusive [inhibitor, single point]"
Cc1cc2cc(CCNC(=O)CC(C)C)c(=O)[nH]c2cc1C,inconclusive: -9.57% [phenotype inactive],–
Cc1ccc(NC(=O)CSc2nc(-c3ccc(F)cc3)cc(C(F)(F)F)c2C#N)cc1,–,"inconclusive [falling, partial curve]"
COc1ccc(NC(=S)Nc2ccc(Oc3ccccc3)cc2)cc1,inactive: -0.894%,–
CC(=O)c1sc(NC(=O)C(C)(C)C)nc1C,–,"inconclusive [inhibitor, partial curve]"
O=C(CSc1ccccc1)Nc1nnc(/C=C/c2ccccc2)s1,inconclusive: 2.32% [phenotype inactive],–

Compound,inhibition (IP1 accumulation),Potency
Cc1cc(C)c(NC(=O)CSC2=Nc3ccccc3C3=NC(CC(=O)NCc4cccs4)C(=O)N23)c(C)c1 (centres undefined),–,"inconclusive [inhibitor, partial curve, poor fit]"
O=C(CSc1nnnn1-c1cccc2c1CCCC2)N1CCCC1,inactive: -4.78%,–
O=C(Nc1ccc(N2CCOCC2)cc1)c1ccc(S(=O)(=O)N2CCCCC2)cc1,inactive: -10.1%,–
CCOc1ccc(-c2nc(-c3ccncc3)no2)cc1OCC,–,"inconclusive [inhibitor, single point]"
Cc1ccc(S(=O)(=O)Cc2c(C)noc2C)cc1,inactive: 15.7%,–
COc1ccc2[nH]c(=O)c(COC(=O)c3ccco3)cc2c1,–,"inconclusive [falling, single point]"
CCc1c(C)c2cc(Cl)c(O)c(CN3CCCCC3)c2oc1=O,–,"inconclusive [inhibitor, partial curve, poor fit]"
C=CCn1c(=NC(=O)C2CCCCC2)sc2cc(NC(C)=O)ccc21,inconclusive: 12% [phenotype inactive],–
Cc1nc(-c2ccccc2)sc1-c1nc(-c2ccccc2)ncc1S(=O)(=O)c1ccccc1,–,"inconclusive [inhibitor, single point]"
COc1cccc2sc(NC(=O)c3ccc(Br)s3)nc12,–,"inconclusive [falling, single point]"
CC(C)Cc1nnc(NC(=O)CCC(=O)NC2CCCc3ccccc32)s1 (centres undefined),inconclusive: 2.53% [phenotype inactive],–
CCOc1ccc(C2/C(=C(\O)c3c(C)[nH]c(C(=O)OC)c3C)C(=O)C(=O)N2CCN(C)C)cc1 (centres undefined),–,"inconclusive [inhibitor, single point]"
O=C(OCC(=O)N1CCc2ccccc21)c1ccc[n+]([O-])c1,inactive: -0.541%,–
Cc1cccc(C)c1OCC(=O)N1CC2(C)CC1CC(C)(C)C2 (centres undefined),inactive: 0.927%,–
Cc1cc(N2C(=O)C(O)=C(C(=O)c3cccs3)C2c2ccccc2)no1 (centres undefined),–,"inconclusive [falling, partial curve]"
Cc1cc(C)c2c(N)c(S(=O)(=O)c3ccccc3)sc2n1,inactive: 9.71%,–
COc1ccc(S(=O)(=O)NCc2csc(C)n2)cc1,inactive: 1.53%,–
Cc1sc2ncnc(Sc3nc4ccccc4s3)c2c1C,–,"inconclusive [falling, single point]"
COc1cccc2c(=O)n(CC(=O)Nc3ccc(F)cc3)ccc12,–,"inconclusive [inhibitor, single point]"
O=C(c1ccco1)n1nc(-c2ccc(Cl)cc2)nc1NCc1ccccc1,–,"inconclusive [falling, single point]"
CC1Cc2cc(/C(O)=C3/C(=O)C(=O)N(Cc4ccco4)C3c3cccs3)ccc2O1 (centres undefined),–,"inconclusive [inhibitor, single point]"
Cc1ccc(CN/C=C/C(=O)c2ccc(Br)cc2)cc1,inactive: 0.602%,–
CC(=O)c1c(C)[nH]c(C(=O)NCCCN2CCCC2)c1C,inconclusive: -15%,–
COc1cc(OC)c(-c2nnc3n(CCc4ccccc4)c(=O)c4ccccc4n23)cc1OC,inactive: 0.767%,–
